Data from article PMC10302205, “Saccharomyces cerevisiae Δ9-desaturase Ole1 forms a supercomplex with Slc1 and Dga1” (The Journal of Biological Chemistry, 2023).
These are yes or no findings as the source states them, for the method shown. Some entries that bind do so weakly or less than the wild type. Tags and fused reporters may be left off the sequences shown.

Target: T1, Slc1-Cub-LexA-VP16 (S. cerevisiae, UniProt P33333 1-303)
T1 construct: Slc1, lysophosphatidic acid acyltransferase of S. cerevisiae; The end of the tag is read from the order of the printed label; also called Slc1 bait (strain YBG2); pTMBV4-SLC1; not shown: Cub-LexA-VP16, C-terminal, kept
T1 sequence (looked up): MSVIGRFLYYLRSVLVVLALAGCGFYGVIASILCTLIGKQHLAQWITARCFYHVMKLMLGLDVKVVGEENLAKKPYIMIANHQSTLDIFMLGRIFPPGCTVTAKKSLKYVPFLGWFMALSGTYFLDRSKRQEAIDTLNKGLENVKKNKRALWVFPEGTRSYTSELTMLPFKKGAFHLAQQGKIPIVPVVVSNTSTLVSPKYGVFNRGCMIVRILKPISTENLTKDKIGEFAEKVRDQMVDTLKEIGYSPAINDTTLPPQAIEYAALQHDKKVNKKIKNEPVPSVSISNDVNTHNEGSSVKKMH
Assay: two-hybrid; membrane yeast two-hybrid (split ubiquitin) in a Δole1 strain (ole1::NatMX6, derived from NMY51): Slc1-Cub-LexA-VP16 as bait, NubG fusions as prey; growth on SD-W-L-H-A supplemented with 0.5% Tween-80 and β-galactosidase activity of cell extracts

B1: NubG-Dga1 (full-length NubG-Dga1 fusion) (enzyme, S. cerevisiae, UniProt Q08650 1-418, looked up)
chain: MSGTFNDIRRRKKEEGSPTAGITERHENKSLSSIDKREQTLKPQLESCCPLATPFERRLQTLAVAWHTSSFVLFSIFTLFAISTPALWVLAIPYMIYFFFDRSPATGEVVNRYSLRFRSLPIWKWYCDYFPISLIKTVNLKPTFTLSKNKRVNEKNYKIRLWPTKYSINLKSNSTIDYRNQECTGPTYLFGYHPHGIGALGAFGAFATEGCNYSKIFPGIPISLMTLVTQFHIPLYRDYLLALGISSVSRKNALRTLSKNQSICIVVGGARESLLSSTNGTQLILNKRKGFIKLAIQTGNINLVPVFAFGEVDCYNVLSTKKDSVLGKMQLWFKENFGFTIPIFYARGLFNYDFGLLPFRAPINVVVGRPIYVEKKITNPPDDVVNHFHDLYIAELKRLYYENREKYGVPDAELKIVG
notes: Dga1, diacylglycerol acyltransferase of S. cerevisiae; DGA1 amplified from W303 genomic DNA; 418 residues by the printed ranges; also called pNubG-DGA1; pADSL-NubG-DGA1; source: yeast two-hybrid fusion (split ubiquitin prey), from plasmid pADSL-NubG-DGA1 in S. cerevisiae; not shown: NubG, N-terminal, kept
Question: B1 was tested. Which binding did it give?
Answer: binds
